Reference: PubChem BioAssay AID938 (National Center for Advancing Translational Sciences (NCATS), 2007)
Where “and” joins values, the source holds several entries; their conditions need not be identical. Equal values may be shown once. Out of some 73,000 compounds screened, about 1,800 (2.5%) were called active. The inconclusive results got no clear call from the source; some entries with a clear call stand among them for comparison. The call rests on the fitted dose curve; in most records, active means well fitted activation curve with a large enough effect; inconclusive means small, poorly fitted or top-dose-only effect; inactive means no such curve, though single readings can be large or run the other way. Where the call is inconclusive, the potency comes from a doubtful curve fit.

assay: qHTS Assay for Agonists of the Thyroid Stimulating Hormone Receptor: Activators of Intracellular cAMP Concentrations in Parental HEK 293; details: parental HEK293 CNG cAMP sensor, membrane potential fluorescence; activation: at 57.1 µM (top of the series) unless noted; further: nearly all actives have a fitted effect of over 55% in size; on activation: % of control where 0% means no effect
Procedure, shortened: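 Parental HEK 293 cells stably expressing a modified CNG channel (no TSHR) report cAMP rise as membrane depolarization. Membrane potential dye with 100 uM RO 20-1724 was loaded for 60 min at room temperature, then compound added for 30 min; fluorescence read at 590 nm.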
Potency means the concentration at half of the fitted maximal effect; tags describe the fitted curve by direction and shape.

**Q.** For `CCCCC(c1nnnn1C1CCCC1)N1CCN(C2CCCC2)CC1` (stereo unspecified), which Potency is on record?
**A.** inconclusive: 2 µM [activator, full curve]

**Q.** Which Potency does the source give for `CCCCc1cc(O)c(CCCC)c(O)c1` here?
**A.** inactive

**Q.** With `N[C@@H]1CONC1=O` as the molecule, how does the Potency read?
**A.** inconclusive: 3.98 µM [activator, partial curve] and inconclusive: 3.98 µM [activator, single point]

**Q.** For `CCCC1(CCC)NC(=O)NC1=O`, which Potency is on record?
**A.** inactive

**Q.** For `COc1cccc(-c2nnc(SCC(=O)OC(C)C)n2Cc2ccco2)c1`, which Potency is on record?
**A.** active: 15.8 µM

**Q.** For `COc1cccc(Cn2c(=O)c(-c3cn(C)c4ccccc34)nc3cncnc32)c1`, which Potency is on record?
**A.** inactive

**Q.** Which Potency does the source give for `CCOC(=O)C1=C(C)N(C)C(C)=C(C(=O)OCC)C1c1cccnc1` here?
**A.** inconclusive: 25.1 µM [activator, single point]

**Q.** Which Potency does the source give for `CCOC(=O)c1c(C)c(C(=O)NCC2CCCO2)c(C)n1C` (stereo unspecified) here?
**A.** inconclusive: 0.126 µM [activator, single point]

**Q.** Which Potency does the source give for `O=C(c1ccccc1)N1CCCCC(Sc2nnnn2-c2ccccc2)C1=O` (stereo unspecified) here?
**A.** inconclusive: 5.01 µM [activator, full curve, poor fit]

**Q.** With `C[C@@H](C(=O)NCCc1c[nH]c2ccccc12)[C@H]1C[C@]1(C)[C@H](NC(=O)OCc1ccccc1)c1ccccc1` as the molecule, how does the Potency read?
**A.** inconclusive: 7.94 µM [activator, full curve]

**Q.** With `O=C(CSc1nnc(COc2ccccc2)o1)Nc1nccs1` as the molecule, how does the Potency read?
**A.** inconclusive: 6.31 µM [activator, single point]

**Q.** With `Cc1ccc2c(CC(=O)OC(C)C(=O)NCc3ccc4c(c3)OCO4)coc2c1` (stereo unspecified) as the molecule, how does the Potency read?
**A.** inconclusive: 25.1 µM [activator, single point]

**Q.** With `O=C(Nc1ncc(Cc2ccccc2)s1)C1CCCO1` (stereo unspecified) as the molecule, how does the Potency read?
**A.** inactive

**Q.** Which Potency does the source give for `CC(C)C(c1nnnn1Cc1ccccc1)N1CCC(C(N)=O)CC1` (stereo unspecified) here?
**A.** inactive

**Q.** For `COc1ccc(OC)c(CCNC(=O)CS(=O)(=O)Cc2nc(-c3ccccc3C)oc2C)c1`, which Potency is on record?
**A.** active: 15.8 µM

**Q.** For `O=c1c(-c2cc(F)cc(F)c2)nc2cnc(Oc3ccccc3)nc2n1C1CC1`, which Potency is on record?
**A.** inactive

**Q.** With `N#Cc1ccccc1N=C1CCCN1Cc1ccccc1` as the molecule, how does the Potency read?
**A.** inconclusive: 31.6 µM [activator, single point]

**Q.** With `Cn1c(SCc2ccc(C#N)cc2Cl)nc2ccccc21` as the molecule, how does the Potency read?
**A.** inconclusive: 31.6 µM [activator, single point]

**Q.** Which Potency does the source give for `CCOC(=O)C1CCN(C(=O)COC(=O)CCOc2ccc(C)cc2)CC1` here?
**A.** inconclusive: 3.16 µM [activator, partial curve]

**Q.** With `COCc1cc(=O)[nH]c(SCC(=O)Nc2ccccc2)n1` as the molecule, how does the Potency read?
**A.** inconclusive: 31.6 µM [activator, single point]

**Q.** With `COc1ccccc1OCC(=O)Nc1oc(-c2ccccc2)c(-c2ccccc2)c1C#N` as the molecule, how does the Potency read?
**A.** inconclusive: 20 µM [activator, partial curve]

**Q.** For `NC(=O)NC(=O)[C@H]1CCCC[C@@H]1C(=O)O`, which activation is on record?
**A.** inactive: 8.44% [at 11.4 µM]

**Q.** With `N#Cc1ccc(-c2nnnn2-c2ccc3c(c2)OCO3)cc1` as the molecule, how does the Potency read?
**A.** inactive

**Q.** Which Potency does the source give for `C=CCn1c(SCC(=O)N2CCOCC2)nc2sc3c(c2c1=O)CCCC3` here?
**A.** inactive

**Q.** For `O=C(Nc1ccccc1)OCCOc1ccccc1`, which Potency is on record?
**A.** inconclusive: 39.8 µM [activator, single point]

**Q.** For `CC(C)Cn1c(SCC(=O)NC(=O)Nc2ccc3c(c2)OCCO3)nc2ccccc2c1=O`, which Potency is on record?
**A.** inconclusive: 2.51 µM [activator, full curve]

**Q.** For `O=C(CCC1COc2ccccc2O1)Nc1ccccn1` (stereo unspecified), which Potency is on record?
**A.** inactive

**Q.** Which Potency does the source give for `CCC(=O)N1CCN(c2ccccc2NC(=O)Cc2ccccc2)CC1` here?
**A.** inconclusive: 2.51 µM [activator, full curve]

**Q.** With `CCOC(=O)N1CCN(C(=O)c2ccc(CNS(=O)(=O)c3ccc(C)cc3)cc2)CC1` as the molecule, how does the Potency read?
**A.** inconclusive: 31.6 µM [activator, single point]

**Q.** For `O=C(Cn1cnc2c(cnn2-c2ccccc2)c1=O)OCc1ccccc1`, which Potency is on record?
**A.** inconclusive: 31.6 µM [activator, single point]

**Q.** For `CCC(=O)N1CCN(c2nc(-c3ccccc3)c3c(c2C#N)CCCC3)CC1`, which Potency is on record?
**A.** active: 3.98 µM

**Q.** With `CCOc1ccc(-n2c(SCC)nc3c(c2=O)SCC3)cc1` as the molecule, how does the Potency read?
**A.** inconclusive: 25.1 µM [activator, single point]

**Q.** For `COc1ccc(CNC(=O)c2cccc(N(C)C)c2)cc1`, which Potency is on record?
**A.** inconclusive: 20 µM [activator, single point]

**Q.** With `CCOc1ccc2[nH]c(=O)c(CN(Cc3ccco3)Cc3nnnn3Cc3ccccc3)cc2c1` as the molecule, how does the Potency read?
**A.** active: 31.6 µM

**Q.** With `CCc1nc(N2CCCC2C(=O)O)c2oc3ccccc3c2n1` (stereo unspecified) as the molecule, how does the Potency read?
**A.** inactive

**Q.** Which Potency does the source give for `N#Cc1c(N)nc(SCC(=O)OCc2ccccc2)c(C#N)c1-c1ccco1` here?
**A.** inconclusive: 6.31 µM [activator, partial curve]

**Q.** With `O=C(Nc1nc2ccccc2[nH]1)C1CCCO1` (stereo unspecified) as the molecule, how does the Potency read?
**A.** inactive

**Q.** Which Potency does the source give for `CCN(CC)c1nc(C#N)cc(-c2ccc(OC)cc2)n1` here?
**A.** inconclusive: 20 µM [activator, partial curve]

**Q.** For `Cc1cccc2cc(CN(CC3CCCO3)C(c3nnnn3Cc3ccco3)C(C)C)c(=O)[nH]c12` (stereo unspecified), which Potency is on record?
**A.** inconclusive: 20 µM [activator, partial curve]

**Q.** Which activation does the source give for `COc1ccc(Nc2nc(N3CCCCC3)nc(N3CCCCC3)n2)c(OC)c1` here?
**A.** inactive: -0.0297% [at 11.4 µM]

**Q.** For `CCc1cc2ccc(OC)cc2nc1SCC(=O)Nc1cc(C)on1`, which Potency is on record?
**A.** inconclusive: 12.6 µM [activator, partial curve, poor fit]

**Q.** Which Potency does the source give for `CCC(c1nnnn1C(C)C)N1CCN(C2CCCC2)CC1` (stereo unspecified) here?
**A.** inconclusive: 12.6 µM [activator, partial curve]

**Q.** With `COc1cc(-c2nnc3sc(-c4cccnc4)nn23)cc(OC)c1OC` as the molecule, how does the Potency read?
**A.** inconclusive: 39.8 µM [activator, single point]

**Q.** Which Potency does the source give for `CCc1nc(-c2ccc(-c3ccc(OC)cc3)nc2OC)no1` here?
**A.** inconclusive: 25.1 µM [activator, single point]

**Q.** For `O=C(c1csnn1)N1CCC2(CCCN(c3ncccn3)C2)CC1`, which Potency is on record?
**A.** inconclusive: 20 µM [activator, single point]

**Q.** For `Cc1ccc(S(=O)(=O)N[C@H](CO)C(=O)O)cc1`, which activation is on record?
**A.** inactive: 2% [at 11.4 µM]

**Q.** Which Potency does the source give for `CC(C)CN1CC2(CCN(S(=O)(=O)c3ccccc3)CC2)C1` here?
**A.** inactive

**Q.** With `O=c1cnc2cnc(N3CCOCC3)nc2n1Cc1ccc(F)cc1` as the molecule, how does the Potency read?
**A.** active: 2.51 µM

**Q.** With `CS[C@]12C(=O)C[C@]3(C)[C@@H](CC[C@@]3(O)C(=O)CO)[C@@H]1CCC1=CC(=O)CC[C@]12C` as the molecule, how does the activation read?
**A.** inactive: -4.68% [at 11.4 µM]

**Q.** For `c1ccc(CNc2nc(-c3ccc4c(c3)OCO4)nc3ccccc23)cc1`, which Potency is on record?
**A.** inactive

**Q.** For `COc1ccc(S(=O)(=O)Nc2ccc(S(=O)(=O)Nc3nc(C)cc(C)n3)cc2)cc1OC`, which Potency is on record?
**A.** inconclusive: 39.8 µM [activator, single point]

**Q.** For `CCOC(=O)C(C)On1c(SC(C)C(=O)OCC)nc2ccccc2c1=O` (stereo unspecified), which Potency is on record?
**A.** inconclusive: 31.6 µM [activator, single point]

**Q.** Which Potency does the source give for `C[n+]1cc2c3c(ccc2c2ccc4cc5c(cc4c21)OCO5)OCO3` here?
**A.** inactive

**Q.** For `Cn1c(=O)c(-c2ccc(F)c(F)c2)nc2cncnc21`, which Potency is on record?
**A.** inactive

**Q.** Which Potency does the source give for `COC(=O)c1sc(N2C(=O)c3oc4ccccc4c(=O)c3C2c2cccs2)nc1C` (stereo unspecified) here?
**A.** inactive

**Q.** With `C/C(=N\O)C(C)(C)NC(=O)Nc1ccc(Cl)cc1` as the molecule, how does the Potency read?
**A.** inconclusive: 25.1 µM [activator, single point]

**Q.** Which Potency does the source give for `CCCCOc1ccc(NC(=O)Cn2c(=O)ccc3c(C)cc(C)nc32)cc1` here?
**A.** inconclusive: 31.6 µM [activator, single point]

**Q.** With `COc1ccc2cc(CN(CCCN3CCOCC3)Cc3nnnn3C3CCCC3)c(=O)[nH]c2c1` as the molecule, how does the Potency read?
**A.** inconclusive: 20 µM [activator, partial curve]

**Q.** For `O=C(CC1CCCC1)NCCc1cn2ccccc2n1`, which Potency is on record?
**A.** inconclusive: 15.8 µM [activator, partial curve]

**Q.** With `CC1CCc2c(sc3ncn4c(SCC(=O)NCc5ccco5)nnc4c23)C1` (stereo unspecified) as the molecule, how does the Potency read?
**A.** active: 25.1 µM

**Q.** For `c1cc(N2CCCC2)ccc1C(c1nnnn1C1CCCCC1)N1CCOCC1` (stereo unspecified), which Potency is on record?
**A.** inactive

**Q.** Which Potency does the source give for `CN1CCN(c2ncnc3ccc(-c4cccnc4)cc23)CC1` here?
**A.** inactive

**Q.** Which Potency does the source give for `COc1ccc(CCNc2oc(COc3ccccc3F)nc2C#N)cc1` here?
**A.** active: 20 µM

**Q.** Which Potency does the source give for `Cc1cc(C(=O)Nc2sc3c(c2C#N)CCC(C)C3)no1` (stereo unspecified) here?
**A.** inactive

**Q.** Which Potency does the source give for `O=C(OCc1c(Cl)cccc1Cl)c1cnccn1` here?
**A.** inactive

**Q.** With `N#Cc1ccc(CSc2nnc(Nc3ccccc3)s2)cc1` as the molecule, how does the Potency read?
**A.** inconclusive: 39.8 µM [activator, single point]

**Q.** With `Cc1nnc(NC(=O)c2ccc(S(=O)(=O)N(C)Cc3ccccc3)cc2)o1` as the molecule, how does the Potency read?
**A.** inactive

**Q.** For `Cc1cc2cc(CN(C(=O)C3CC3)C3CCCC3)c3nnnn3c2cc1C`, which Potency is on record?
**A.** inconclusive: 25.1 µM [activator, partial curve]

**Q.** Which Potency does the source give for `COc1ccc(-c2nn3c(-c4ccccc4)nnc3s2)cc1` here?
**A.** inconclusive: 31.6 µM [activator, single point]

**Q.** Which Potency does the source give for `CC(=O)c1cccc(NC(=O)c2cc(-n3cnnc3)ccc2Cl)c1` here?
**A.** inactive

**Q.** With `O=C(O)C[C@@H](C(=O)O)C1c2ccccc2-c2ccccc21` as the molecule, how does the Potency read?
**A.** inconclusive: 1.26 µM [activator, single point]

**Q.** For `COc1cccc2sc(N(C)c3ccccc3)nc12`, which Potency is on record?
**A.** inactive

**Q.** With `N#Cc1nc(COc2ccc(Cl)cc2)oc1NCc1ccc2c(c1)OCO2` as the molecule, how does the Potency read?
**A.** active: 10 µM

**Q.** For `O=C(CC(NS(=O)(=O)c1ccc(Cl)cc1)c1ccco1)NC1CCCC1` (stereo unspecified), which Potency is on record?
**A.** inconclusive: 39.8 µM [activator, single point]

**Q.** For `COC(=O)/C=C/S(=O)(=O)c1ccc(NC(C)=O)cc1`, which Potency is on record?
**A.** inconclusive: 31.6 µM [activator, single point]

**Q.** For `CCCCCCNc1c(C(=O)OCC)c(=O)[nH]c2ccccc12`, which Potency is on record?
**A.** inconclusive: 39.8 µM [activator, single point]
